The results in this text go back to PubChem BioAssay (NCI).

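Growth conditions: 96-well plates. Treatment: test compound, 48 hours, 5 concentrations. Analysis: linear interpolation between bracketing concentrations; unreached endpoints set to highest concentration. GI50 marks 50% less growth.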 A number of entries come with more than one value. The list is limited to them. An entry can have further records. For some assays here: A record mostly stands for its own series of concentrations, which the source does not state; a value can be the end of its range.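 TGI is the concentration that stops growth completely.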 For some assays here: The records of an entry are repeated measurements across runs, samples, wells, individuals or studies. What stands in brackets tells the records apart. Letters hold for one entry only.

Some test systems named below: HL-60(TB) leukemia; CAKI-1 renal; KM12 colon; CCRF-CEM leukemia; HOP-18 NSCLC; MOLT-4 leukemia; NCI-H522 lung; BT-549 breast; HCC-2998 colon; DU-145 prostate; SK-MEL-2 melanoma; OVCAR-3 ovarian; A498 renal; SNB-19 CNS; MALME-3M melanoma; SF-295 CNS; OVCAR-8 ovarian; M14 melanoma; LXFL 529 NSCLC; XF 498 CNS; RXF-631 renal.
Holding throughout (assay): DTP human tumour cell line panel, 48 h

Turning to `CC(=O)O[C@@H]1c2c(c3c(=O)c4cccc(O)c4c(=O)c=3c2=[N+]=[N-])[C@H](OC(C)=O)[C@@H](OC(C)=O)[C@]1(C)O`, the TGI in the assay with HL-60(TB) leukemia is 50 µM and 402 nM.
As for `CC[C@@]1(O)CC(OC2CC(N3CCOCC3)C(O)C(C)O2)c2c(O)c3c(c(O)c2[C@H]1O)C(=O)c1cccc(O)c1C3=O` (stereo partly drawn), the concentration for 50% growth inhibition (GI50) – broadly, the concentration at which growth is held to half of that of the control – is < 12.2 nM [mean of 2 tests] and 0.767 nM [mean of 3 tests] and 25.8 nM [mean of 7 tests] in the assay with CAKI-1 renal; 0.966 nM and 107 nM in the assay with KM12 colon; 55.9 nM [mean of 4 tests] and 0.626 nM [mean of 5 tests] in the assay on HOP-18 NSCLC; 18.9 nM [mean of 10 tests] and 0.252 nM [mean of 5 tests] in the assay on MOLT-4 leukemia. For the same compound, the TGI is recorded as 0.649 nM, 1.19 µM, 201 nM in the assay on CCRF-CEM leukemia and 0.997 nM, 2.54 µM, 312 nM in the assay on HOP-18 NSCLC.
Take `CC[C@]12CN3CCc4c([nH]c5ccccc45)[C@@](C(=O)OC)(c4cc5c(cc4OC)N(C)[C@H]4[C@@](O)(C(=O)OC)[C@H](OC(C)=O)[C@]6(CC)C=CCN7CC[C@]54[C@@H]76)CC(C3)[C@H]1O2` (stereo partly drawn): the TGI with NCI-H522 lung was 10.5 µM [sample A] and 139 nM [sample B]; in the assay with BT-549 breast, > 100 µM [sample A] and 4.62 µM [sample B]; with HCC-2998 colon it was 56.2 nM [sample A] and > 10 µM [sample B]; in the assay with KM12 colon it was > 28.4 µM [sample A] and 1.14 µM [sample B]; in the assay on DU-145 prostate, > 46 µM [sample A] and 415 nM [sample B]; in the assay on SK-MEL-2 melanoma, 27.8 µM [sample A] and 1.6 µM [sample B]. Besides, the TGI in the assay on OVCAR-3 ovarian is 33.8 µM [sample A] and 201 nM [sample B]; in the assay on A498 renal, > 48.1 µM [sample A] and 4.67 µM [sample B].
`COc1cc2c(c(OC)c1OC)-c1ccc(SC)c(=O)cc1[C@@H](NC(=O)c1cccc([N+](=O)[O-])c1)CC2`: the TGI in the assay on SNB-19 CNS was 93.9 nM and 19.1 µM; in the assay on MALME-3M melanoma, 64.7 nM and 41.7 µM; with SF-295 CNS it was 53.9 nM and 15.5 µM; with OVCAR-8 ovarian, 66.2 nM and 17.1 µM; in the assay on M14 melanoma it was 47.5 nM and 38 µM; with LXFL 529 NSCLC, 86.4 nM and 40.2 µM. Moreover, the TGI in the assay on XF 498 CNS is 72.6 nM and 10.7 µM; in the assay with RXF-631 renal, 49.8 nM and 14.1 µM.
